# ± gives the standard deviation of the averaged measurements. The list shows a part of the results.
# System: PfAP2-LT AP2 domain (GST-tagged)
# Experiment: gcPBM binding intensity (ln(normalized median fluorescence intensity)); higher = stronger DNA binding
# Method in brief: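 An Agilent 4 × 180k array of primer-extended double-stranded 36-bp intergenic genomic probes, with negative controls, was incubated for 1 h with GST-tagged P. falciparum DNA-binding domains expressed in E. coli. Alexa488 anti-GST antibody detected bound protein, scanned at 488 nm. Binding intensity is the highest Masliner-normalised natural-log median intensity across replicate spots of either probe orientation.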
row,Sequence,gcPBM binding intensity (ln)
1,GATTATATATTAAAAAGTACTTTATAAATACTTCTA [XGTACX_site8992],8.41 ± 0.42
2,CAAAGCATAGTATGATGTACAAATGTTCCTATAATA [XGTACX_site8642],8.89 ± 0.55
3,ATATATATATAATATTGTACATAGTAGACATCACAC [XGTACX_site4649],9.11 ± 0.38
4,TCTTATTATAAAAGGAGTACATCAATTAGATGTTCC [XGTACX_site8465],8.39 ± 0.45
5,TAAAATATGGAAATCACACATTTATTAAAATATATA [CACACA_site4623],8.48 ± 0.5
6,TATATATGTATAAGAGTGCATATGCATATATGTATA [GTGCAC_site9692],9.03 ± 0.39
7,TTATGTTTATACACTACACACATTATTCATAAAAAA [CACACA_site4637],8.71 ± 0.34
8,TATGGGTTTATATAGGTGCAATATATGTATATATAA,8.62 ± 0.39
9,TATACCACCCGATATACACACTTGTAGACATCTTTT [CACACA_site4268],9.02 ± 0.33
10,AGCAATATTTATTAAAGTACGTAAAAAAAATTCTCA [XGTACX_site6550],8.6 ± 0.53
11,AACCATTGGGAAAGGGTGCACATATATATATATATA,10.09 ± 0.099
12,TATATAGTTTATATTTGTACATATAGACATTTATAA [XGTACX_site6414],8.46 ± 0.45
13,ACAAAACTCTTTAATTGTACAAATATAATATAAAAA [XGTACX_site5690],8.71 ± 0.35
14,TATTGTATATAATAAACACACAATATTAAAAATATA [CACACA_site1057],8.78 ± 0.4
15,TATTTAAAAAACACATGTACGAGTATTATATATAAA [XGTACX_site6654],8.62 ± 0.4
16,AGTATATTAAAAAATACACACGTATTATATCTACAT [CACACA_site8844],9.02 ± 0.45
17,GTTCATAAATTAAACACACACACACCGCTGGATACC [CACACA_site5779],9.77 ± 0.16
18,TAATATACTTAATACACACACGAATATTTATAAATA [CACACA_site6675],9.11 ± 0.34
19,AAACTCAACTTATATACACACAATCTTTTTTTTTTA [CACACA_site29],8.74 ± 0.35
20,CCCCTCGAAATAATTTGTACGAATATATTGTCTGTA [XGTACX_site8308],9.22 ± 0.14
21,GATTCATCTAAACACCGTACATATTATATATATATA [XGTACX_site6030],8.95 ± 0.15
22,TTAATTCGTACATACACACGCACATATATATATATA [CACACA_site1469],9.695 ± 0.05

row,Sequence,gcPBM binding intensity (ln)
1,ATTGGAAAATATGTTATATATATATATATATATATG [CACACA_negctrl_site116],9.05 ± 0.35
2,ATATTTTTTTTCTACACACATACAAATATATATTAT [CACACA_site2359],9.11 ± 0.39
3,AATAATAATAGAAACACACACACATCTTTAATAATA [CACACA_site4805],9.895 ± 0.092
4,TTATAACATCTTAAATGTACAAATATGTGCTTATTT [XGTACX_site7285],8.76 ± 0.46
5,ATATTAAAATACAGTGCATGTTAAAAATATATTATA [TGCATGCA_site977],8.87 ± 0.47
6,AATAAAAGTTCACCTGTACACACATATATATATGTA [CACACA_site8500],9.19 ± 0.44
7,TAAAAAAAAAACATCTGTACCAATTTTTATGTATAA [XGTACX_site5196],8.31 ± 0.48
8,ATGTATTTATATACTTGTACGTAAGATGTATTATAT [XGTACX_site908],8.87 ± 0.37
9,GGTTATAACGCACATGCACACGTAAATAAATATTAT [CACACA_site9277],9.34 ± 0.33
10,TAAATTTTAATAAATACACACAAATTTTAATTCTAT [CACACA_site6039],8.55 ± 0.4
11,CTTTTTCGCATGAAAAGTACATGAAATATATTACAT [XGTACX_site8971],8.58 ± 0.38
12,ACATGCAACCATTCGGGTACAGAAATAAATATATAC [XGTACX_site4174],9.09 ± 0.38
13,AATAACTTTTTAAACACACACACATATAAATAAATA [CACACA_site6196],9.54 ± 0.18
14,ATACACTTAATATTATGTACATATATAAAAAAAATA [XGTACX_site1500],8.76 ± 0.36
15,TATATTTAAATTCTTTCAAATCATGTTGTAATTTTT [CACACA_negctrl_site1349],8.42 ± 0.45
16,AATTGTATGTATGCCTGTACATATGTCTATCTTAAG [XGTACX_site1927],9.05 ± 0.43
17,ATTTATTTATTTTTTTGTACTTATAATTTTTATTAT [XGTACX_site2656],8.83 ± 0.51
18,TATTTTATATGAGGCACACAAATTTTAATTGTTATT [CACACA_site725],8.66 ± 0.54
19,TATAAAAATAATATTACACACATGTAAAATGGGGGT [CACACA_site9071],9.53 ± 0.13
20,AGGAATATCGAAAACTGTACTTGTATGTTTCATAAA [XGTACX_site6143],8.71 ± 0.4
21,TATTTATCTATATATTGTACTTATTAGTCTTAATGT [XGTACX_site4242],8.88 ± 0.52
22,TCTTTTTTAATATAATATATTTTTATTAAGTAAATC [TGCATGCA_negctrl_site408],8.19 ± 0.57
